Reference: the supplement of paper PMC7826260
This is one part of the list. Cleavage of a single-stranded DNA pool by Rep nickase domains was read by sequencing (1 h at 37 °C, 3 µM enzyme); the outer parts of the 90-letter strands are left off. Values are log2 of uncut reads against the no-enzyme pool; uncut sequences lie near 0, cut ones below; no hit call is given. Shares of all reads are compared; values above 0 arise when much of the pool is cut.

Experiments:
Assay in all cases: uncleaved DNA left, log2 of reads against the no-enzyme library (log2 ratio); higher = less cleavage (more negative = more Rep cleavage of the k-mer); sequences stand for … in CTCGTCCG…ACCGGAGA
[1] = system: T1, Rep nickase domain of Muscovy duck circovirus
T1 sequence (Rep 1-111, printed without the tag): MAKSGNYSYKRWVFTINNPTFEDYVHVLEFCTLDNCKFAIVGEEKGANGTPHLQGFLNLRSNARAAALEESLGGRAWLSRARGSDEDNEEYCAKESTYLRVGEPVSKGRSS
Experimental: (§1)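 A pool of 90-nt single-stranded DNAs with seven random bases just before the constant AC of the nick site (name = the seven bases) was cut by 3 µM recombinant His6-SUMO-tagged Rep nickase domain (300 nM DNA, 50 mM HEPES pH 8.0, 50 mM NaCl, 1 mM MnCl2, 1 h, 37 °C, three replicates). Uncut DNA was amplified and sequenced.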

[2] = system: T2, Rep nickase domain of banana bunchy top virus
T2 sequence (Rep 1-94, printed without the tag): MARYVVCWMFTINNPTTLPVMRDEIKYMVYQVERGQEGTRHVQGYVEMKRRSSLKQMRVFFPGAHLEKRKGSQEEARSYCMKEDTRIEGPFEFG
Experimental: as §1

[3] = system: T3, Rep nickase domain of cabbage leaf curl virus
T3 sequence (Rep 1-116, printed without the tag): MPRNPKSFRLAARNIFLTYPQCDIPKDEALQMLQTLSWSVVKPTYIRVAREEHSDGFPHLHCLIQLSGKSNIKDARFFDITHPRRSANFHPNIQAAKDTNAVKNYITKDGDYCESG
Experimental: as §1

[4] = system: T4, Rep nickase domain of chickpea chlorotic dwarf virus
T4 sequence (Rep 1-124, printed without the tag): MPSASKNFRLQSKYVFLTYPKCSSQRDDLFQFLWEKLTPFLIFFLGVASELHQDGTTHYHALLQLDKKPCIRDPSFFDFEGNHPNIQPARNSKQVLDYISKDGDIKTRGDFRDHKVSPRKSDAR
Experimental: as §1

[5] = system: T5, Rep nickase domain of faba bean necrotic yellows virus
T5 sequence (Rep 1-98, printed without the tag): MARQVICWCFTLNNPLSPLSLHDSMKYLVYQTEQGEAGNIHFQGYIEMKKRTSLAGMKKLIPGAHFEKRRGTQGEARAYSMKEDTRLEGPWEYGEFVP
Experimental: as §1

[6] = system: T6, Rep nickase domain of maize striate mosaic virus
T6 sequence (Rep 1-117, printed without the tag): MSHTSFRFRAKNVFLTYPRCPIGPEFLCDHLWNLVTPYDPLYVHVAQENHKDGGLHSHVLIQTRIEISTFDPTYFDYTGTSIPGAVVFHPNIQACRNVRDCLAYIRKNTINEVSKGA
Experimental: as §1

[7] = system: T7, Rep nickase domain of porcine circovirus 2
T7 sequence (Rep 2-116, printed without the tag): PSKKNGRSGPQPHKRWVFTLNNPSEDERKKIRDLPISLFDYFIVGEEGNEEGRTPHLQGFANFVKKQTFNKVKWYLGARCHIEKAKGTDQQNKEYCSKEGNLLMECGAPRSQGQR
Experimental: as §1

[8] = system: T8, Rep nickase domain of tomato golden mosaic virus
T8 sequence (Rep 1-124, printed without the tag): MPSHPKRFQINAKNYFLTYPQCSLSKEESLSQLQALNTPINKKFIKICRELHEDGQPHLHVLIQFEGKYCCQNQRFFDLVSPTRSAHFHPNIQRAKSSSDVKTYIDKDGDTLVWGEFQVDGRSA
Experimental: as §1

[9] = system: T9, Rep nickase domain of tomato yellow leaf curl virus
T9 sequence (Rep 1-136, printed without the tag): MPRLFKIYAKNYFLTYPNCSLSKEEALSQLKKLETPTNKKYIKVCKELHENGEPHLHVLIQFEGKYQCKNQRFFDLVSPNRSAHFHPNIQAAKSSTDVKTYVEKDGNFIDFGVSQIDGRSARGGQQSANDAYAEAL
Experimental: as §1

[10] = system: T10, Rep nickase domain of wheat dwarf virus
T10 sequence (Rep 1-137, printed without the tag): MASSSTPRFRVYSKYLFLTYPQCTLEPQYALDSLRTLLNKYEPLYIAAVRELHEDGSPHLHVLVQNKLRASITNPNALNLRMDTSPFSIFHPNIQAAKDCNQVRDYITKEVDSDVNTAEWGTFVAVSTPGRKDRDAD
Experimental: as §1

Sequence	uncleaved DNA left (log2) [1]	uncleaved DNA left (log2) [2]	uncleaved DNA left (log2) [3]	uncleaved DNA left (log2) [4]	uncleaved DNA left (log2) [5]	uncleaved DNA left (log2) [6]	uncleaved DNA left (log2) [7]	uncleaved DNA left (log2) [8]	uncleaved DNA left (log2) [9]	uncleaved DNA left (log2) [10]
GGATATG	0.0565	-0.0787	0.696	1.52	-0.0834	1.77	0.239	-0.0333	0.0637	0.12
GGCCTCC	-0.025	-0.0623	0.239	0.58	-0.00773	1.03	-0.0669	-0.0123	0.0574	0.0376
CGCCCTT	-0.048	-0.0635	0.266	-0.615	-0.217	0.569	-0.357	-0.227	-0.0058	0.0855
GATAGAG	-0.0306	-0.0793	-0.274	-0.117	0.0486	-0.932	0.102	0.00783	-0.0104	-0.0359
TTCCCCC	-0.216	-0.0714	0.0314	-0.33	-0.259	-0.342	-0.524	-0.265	-0.108	-0.0177
GACAGTG	0.0513	-0.0564	-0.516	-0.396	0.0406	-0.812	0.231	0.0625	0.0975	-0.0328
TCCTGAT	-0.243	-0.203	0.0372	-0.0139	-0.0811	0.665	-2.59	-0.114	-0.0836	-0.0849
TGAATTC	0.0258	0.0789	0.309	0.45	-0.0776	0.137	0.0213	0.0525	-0.0158	0.169
CACTTTC	-0.143	-0.0426	-0.0591	-0.691	-0.0364	-0.854	-1.23	-0.0423	0.0142	0.0174
CTAATAT	-0.0231	0.0534	0.256	-1.09	0.0486	-0.647	0.121	-0.0232	0.0867	0.0558
GGCTCCG	0.0569	-0.0383	0.034	0.16	0.00166	-0.00954	0.0849	0.0166	-0.0752	0.045
TAACTTA	-0.164	-0.0595	-1.52	-3.2	0.0559	-0.648	-0.178	-0.254	0.0691	-0.978
GACGAAA	-0.089	-0.188	0.0938	0.394	-0.0739	0.299	-0.0352	-0.157	-0.164	-0.129
ATTACCA	-0.047	0.102	-0.0783	-2.38	-0.0226	-0.309	-0.811	0.00871	0.0745	0.0971
GGCTAGC	-0.0779	0.0587	0.275	0.722	-0.0046	1.19	0.0691	0.0231	-0.0503	-0.0677
TCAAAGC	0.0574	0.11	-0.136	-0.312	0.0802	-0.997	0.205	0.0564	0.116	-0.0027
AAAGCAC	-5.13e-05	0.0837	-0.146	0.0404	0.0826	-0.59	0.157	0.112	0.0287	0.0523
CCACAGT	-0.14	-0.209	-0.668	-1.71	-0.0459	-0.881	-0.323	-0.189	-0.161	-0.297
GCTAATG	-0.0692	-0.0227	-0.312	0.0878	-0.0414	-0.59	0.069	-0.0726	-0.0997	-0.0368
GGCGAGT	-0.0227	-0.0307	0.243	0.779	-0.0184	1.66	0.188	0.123	-0.0899	0.14
AAGTTAC	-0.0556	-0.163	-0.344	-1.88	-0.0191	-0.706	-1.48	-0.0835	-0.154	-0.0524

Sequence	uncleaved DNA left (log2) [1]	uncleaved DNA left (log2) [2]	uncleaved DNA left (log2) [3]	uncleaved DNA left (log2) [4]	uncleaved DNA left (log2) [5]	uncleaved DNA left (log2) [6]	uncleaved DNA left (log2) [7]	uncleaved DNA left (log2) [8]	uncleaved DNA left (log2) [9]	uncleaved DNA left (log2) [10]
GCGGATT	-0.102	-0.0332	0.606	1.3	-0.0801	1.89	-0.0312	-0.126	-0.0453	0.0731
GCGTGAT	-0.142	-0.0211	0.153	0.588	-0.0392	1.08	-2.33	-0.00369	-0.015	-0.0974
GCTTGAA	0.0475	0.119	0.209	0.634	0.116	0.121	0.184	0.171	0.212	0.086
CCGATTA	-0.038	-0.0358	-0.0856	-1.08	-0.0102	-0.47	-0.123	0.0473	-0.27	-0.0149
GTTACTA	-0.00791	0.122	0.362	0.875	0.0142	1.84	0.102	0.144	0.238	0.159
ACCGGTC	0.00693	-0.153	0.0371	0.277	0.0183	-0.443	0.0841	-0.00772	-0.168	-0.0187
TGTCTCA	0.043	-0.036	0.23	0.0317	-0.0016	0.72	-0.000565	0.00435	0.0671	0.0746
CATAATC	0.0572	0.0897	-0.00383	-0.101	-0.0292	-0.757	0.0822	0.0266	0.183	0.178
TTCCATA	0.0634	0.266	0.184	-0.485	0.114	0.199	0.0508	0.135	0.322	0.114
CCTCGGC	0.252	0.0706	0.167	0.0253	0.0134	-0.547	0.193	0.065	-0.000885	-0.0469
CTCACGA	0.0254	0.082	-0.0858	-0.39	-0.0678	-0.809	0.115	-0.0337	-0.00628	-0.0776
CAGTTTC	-0.279	-0.165	-0.126	-0.435	-0.326	-0.594	-3.19	-0.102	-0.0608	-0.164
TGTTTTT	-2.83	-0.167	0.28	-0.941	0.0615	0.973	-2.52	0.0316	0.0751	0.0172
TTCTATG	-0.133	-0.141	-0.489	-0.608	0.0389	-1.1	-0.0599	-0.0119	-0.0418	-0.0643
GTCCCAG	0.0624	0.0734	0.35	0.769	-0.0391	1.3	0.129	0.19	0.0849	0.147
GCTACGG	-0.119	0.0426	0.423	1.38	-0.0612	1.96	0.089	-0.0327	-0.174	-0.0617
CTTATGG	0.054	0.0566	0.0322	0.509	-0.0102	-0.407	0.178	-0.0322	-0.0186	0.102
TTACGGG	-0.108	-0.19	0.0475	-0.263	-0.0924	-0.0759	-0.0281	-0.181	-0.209	-0.195
ATGAATG	0.0257	0.0776	-0.0231	0.442	0.0331	-0.0543	0.00403	0.0539	0.00577	0.0676
CACGGCT	0.072	0.00776	-0.161	-1.12	0.0113	-0.577	-0.0186	0.00683	-0.11	-0.0124
GGATGAA	0.122	0.0663	0.602	1.39	0.0784	1.89	0.273	0.0334	0.0925	0.181

Sequence	uncleaved DNA left (log2) [1]	uncleaved DNA left (log2) [2]	uncleaved DNA left (log2) [3]	uncleaved DNA left (log2) [4]	uncleaved DNA left (log2) [5]	uncleaved DNA left (log2) [6]	uncleaved DNA left (log2) [7]	uncleaved DNA left (log2) [8]	uncleaved DNA left (log2) [9]	uncleaved DNA left (log2) [10]
TATGTAC	0.0817	0.00845	0.0782	-0.455	0.0849	-0.626	-0.0851	-0.0727	0.0697	0.0689
GGCAGAG	0.019	0.0671	0.666	1.46	-0.0111	1.45	0.193	0.0442	0.126	0.072
CGCAGGA	-0.0349	-0.0963	0.0398	0.363	-0.182	-0.132	-0.0175	-0.0993	-0.0985	-0.14
GTAATCC	0.0613	0.0591	0.347	0.871	0.00295	1.56	0.0699	-0.0344	0.0583	0.114
CCTAAGC	0.0506	0.0344	-0.0299	-0.124	0.0929	-0.762	0.131	0.0148	0.0886	-0.0883
CACGCTC	-0.071	-0.112	-0.183	-0.896	-0.0485	-0.685	-0.0775	-0.0392	-0.146	-0.116
GAATTCG	0.0132	0.0245	-0.768	0.249	0.0268	-0.69	0.0671	-0.105	0.0862	-0.104
CTTAAGA	0.0564	0.05	-0.109	-0.268	0.0272	-0.996	0.211	-0.0323	0.0996	0.0992
AGTGACA	-0.0215	0.0662	0.0165	0.644	-0.108	1.35	-0.000666	0.0153	0.0152	0.00693
ATTTCCA	-0.139	-0.0138	-0.116	-1.4	0.00241	-0.403	-0.285	0.0294	0.00774	0.0455
AAAGACA	0.00357	-0.0184	0.0375	-1.58	-0.000626	0.58	0.0486	0.0143	-0.134	0.0499
GTGCTAC	-0.145	-0.0793	0.0923	0.7	-0.178	1.68	-0.225	-0.0151	-0.101	-0.0216
GGCTACC	-0.0666	0.0252	0.355	0.511	-0.0834	1.4	-0.0605	-0.0575	-0.0494	-0.00351
ACTCATC	-0.00373	0.0779	-0.15	-0.174	-0.00378	-1.05	0.106	0.00554	-0.0487	0.136
GACTTGG	-0.0065	-0.0892	-0.244	0.0918	-0.0399	-0.62	0.124	-0.019	-0.0518	-0.0686
GTCCGGG	0.0218	-0.00205	0.563	1.09	0.0534	1.81	0.119	0.0675	0.0311	0.0283
TGACCAT	-0.0399	-0.0769	0.422	0.633	-0.0208	1.09	-0.125	-0.0885	-0.0235	0.103
TAATCCC	-0.467	-0.0524	-3.44	-3.19	-0.0186	-2.66	-0.853	-3.49	-0.118	-3.32
GTCGGTC	-0.00518	0.0213	0.623	1.52	-0.014	1.85	0.0333	0.167	-0.0476	-0.0533
ATAGTCA	0.0902	0.0222	-0.00148	-1.27	0.111	-0.569	0.0647	0.0796	0.124	0.151
